According to the supplement of paper PMC4967469:
pIC50: −log10 of the molar value. The IC50 comes from the fitted curve, where viability falls to half of the control; a limit (>, <) means that the fit lies beyond the doses tested. AUC sums up the same curve from the lowest dose to the 256-fold higher top dose; values near 1 show little effect.

Each cell line was assayed with CC[C@H](Nc1ncnc2[nH]cnc12)c1nc2cccc(F)c2c(=O)n1-c1ccccc1 [CAL-101] (assay: Viability of human cancer cell lines after 72 h of drug (GDSC screen)).
Experimental: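 Human cancer cell lines in 384-well plates, medium with 10% serum, drug for 72 h over a 256-fold dose range (nine 2-fold or five 4-fold steps up to the top dose). Adherent lines were fixed and stained with the nucleic acid dye Syto60, suspension lines read with resazurin; signal relative to control wells, capped at 0 and 100%. One two-parameter sigmoid per drug and line, fitted in a mixed model over all curves with the slope shared within a line.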

| Cell Line | AUC | pIC50 |
| --- | --- | --- |
| RXF393 (kidney, adherent, top dose 20 µM) | 0.87 | < 4.70 |
| Ramos-2G6-4C10 (Burkitt lymphoma, suspension, top dose 20 µM) | 0.956 | < 4.70 |
| SAS (head and neck, adherent, top dose 20 µM) | 0.946 | < 4.70 |
| SAT (head and neck, adherent, top dose 20 µM) | 0.919 | < 4.70 |
| SBC-1 (small cell lung carcinoma, suspension, top dose 20 µM) | 0.987 | < 4.70 |
| SBC-3 (small cell lung carcinoma, adherent, top dose 20 µM) | 0.934 | < 4.70 |
| SBC-5 (small cell lung carcinoma, adherent, top dose 20 µM) | 0.993 | < 4.70 |
| SCC90 (head and neck, adherent, top dose 20 µM) | 0.738 | 5.09 |
| SCC-3 (B-cell lymphoma, suspension, top dose 20 µM) | 0.996 | < 4.70 |
| SCC-4 (head and neck, adherent, top dose 20 µM) | 0.965 | < 4.70 |
| SCC-9 (head and neck, adherent, top dose 20 µM) | 0.834 | 4.73 |
| SCC-15 (head and neck, adherent, top dose 20 µM) | 0.945 | < 4.70 |
| SCC-25 (head and neck, adherent, top dose 20 µM) | 0.881 | < 4.70 |
| SCH (stomach, adherent, top dose 20 µM) | 0.988 | < 4.70 |
| SF126 (glioma, adherent, top dose 20 µM) | 0.951 | < 4.70 |
| SF268 (glioma, adherent, top dose 20 µM) | 0.96 | < 4.70 |
| SF295 (glioma, adherent, top dose 20 µM) | 0.946 | < 4.70 |
| SF539 (glioma, adherent, top dose 20 µM) | 0.984 | < 4.70 |
| SH-4 (melanoma, adherent, top dose 20 µM) | 0.964 | < 4.70 |
| SHP-77 (small cell lung carcinoma, semi-adherent, top dose 20 µM) | 0.897 | < 4.70 |
| SIG-M5 (acute myeloid leukaemia, suspension, top dose 20 µM) | 0.716 | 5.37 |

| Cell Line | AUC | pIC50 |
| --- | --- | --- |
| SIMA (neuroblastoma, adherent, top dose 20 µM) | 0.982 | < 4.70 |
| SISO (cervix, adherent, top dose 20 µM) | 0.982 | < 4.70 |
| SJRH30 (rhabdomyosarcoma, adherent, top dose 20 µM) | 0.968 | < 4.70 |
| SJSA-1 (bone, adherent, top dose 20 µM) | 0.956 | < 4.70 |
| SK-CO-1 (large intestine, adherent, top dose 20 µM) | 0.989 | < 4.70 |
| SK-ES-1 (Ewing sarcoma, semi-adherent, top dose 20 µM) | 0.961 | < 4.70 |
| SK-GT-4 (oesophagus, adherent, top dose 20 µM) | 0.943 | < 4.70 |
| SK-HEP-1 (liver, adherent, top dose 20 µM) | 0.989 | < 4.70 |
| SK-LMS-1 (soft tissue, adherent, top dose 20 µM) | 0.872 | 4.76 |
| SK-LU-1 (lung adenocarcinoma, adherent, top dose 20 µM) | 0.973 | < 4.70 |
| SK-MEL-1 (melanoma, suspension, top dose 20 µM) | 0.993 | < 4.70 |
| SK-MEL-2 (melanoma, adherent, top dose 20 µM) | 0.977 | < 4.70 |
| SK-MEL-3 (melanoma, adherent, top dose 20 µM) | 0.98 | < 4.70 |
| SK-MEL-5 (melanoma, adherent, top dose 20 µM) | 0.964 | < 4.70 |
| SK-MEL-24 (melanoma, adherent, top dose 20 µM) | 0.973 | < 4.70 |
| SK-MEL-28 (melanoma, adherent, top dose 20 µM) | 0.978 | < 4.70 |
| SK-MEL-30 (melanoma, adherent, top dose 20 µM) | 0.94 | < 4.70 |
| SK-MES-1 (lung squamous cell carcinoma, adherent, top dose 20 µM) | 0.915 | < 4.70 |
| SK-MG-1 (glioma, adherent, top dose 20 µM) | 0.987 | < 4.70 |
| SK-MM-2 (myeloma, suspension, top dose 20 µM) | 0.884 | < 4.70 |
